# The full ranking holds about 33,000 sequences; the median of “E-score (-0.5 to 0.5)” is about -0.011, and the highest 2% start at about 0.28. This is one part of the list.
# Target: T1, Gcr1 (UniProt P07261)
# T1 sequence: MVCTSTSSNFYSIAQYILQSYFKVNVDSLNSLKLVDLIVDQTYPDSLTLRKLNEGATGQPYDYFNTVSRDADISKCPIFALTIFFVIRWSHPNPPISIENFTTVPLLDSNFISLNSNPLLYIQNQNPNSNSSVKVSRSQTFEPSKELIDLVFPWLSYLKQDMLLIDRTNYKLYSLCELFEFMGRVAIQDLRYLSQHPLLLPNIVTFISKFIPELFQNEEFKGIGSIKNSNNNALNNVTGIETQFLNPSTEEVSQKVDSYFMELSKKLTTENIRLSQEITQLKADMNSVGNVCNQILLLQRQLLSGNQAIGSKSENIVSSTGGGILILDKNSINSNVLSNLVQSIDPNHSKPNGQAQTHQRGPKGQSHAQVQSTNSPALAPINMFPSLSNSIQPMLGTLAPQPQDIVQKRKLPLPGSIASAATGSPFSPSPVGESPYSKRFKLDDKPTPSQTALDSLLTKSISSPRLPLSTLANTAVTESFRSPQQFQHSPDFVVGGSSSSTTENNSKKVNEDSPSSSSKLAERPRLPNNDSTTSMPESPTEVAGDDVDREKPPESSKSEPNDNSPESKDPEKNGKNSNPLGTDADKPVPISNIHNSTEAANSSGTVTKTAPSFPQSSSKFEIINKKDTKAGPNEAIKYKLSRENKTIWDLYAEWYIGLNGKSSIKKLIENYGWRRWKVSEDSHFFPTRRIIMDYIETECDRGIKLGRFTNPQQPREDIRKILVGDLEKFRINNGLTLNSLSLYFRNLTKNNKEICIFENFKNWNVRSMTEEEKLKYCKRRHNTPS
# Test: PBM E-score (8-mer binding enrichment) (E-score (-0.5 to 0.5)); higher = stronger / more preferred TF binding; most listed sequences are background and not binding sites
# Conditions: protein concentration: 100 nM; construct: GST-full length
# Summary of the method: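 Bound GST-tagged yeast transcription factors, applied at about 100-200 nM to double-stranded universal all-10-mer Agilent arrays, were detected with fluorescent anti-GST. Scans were normalised with masliner. A modified Wilcoxon-Mann-Whitney statistic, the E-score, was assigned to each ungapped eight-base word pooled with its reverse complement by the Universal PBM Analysis Suite.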
row,Sequence,PBM E-score
1,AGTACACC,-0.193
2,TAATGCGA,-0.0341
3,CTTTCACC,-0.202
4,ACAGCTTG,-0.199
5,ACTCCACT,0.0961
6,CTGCCAGA,0.234
7,AAGCCGGA,0.186
8,AACGTCGC,-0.00983
9,CTTGAACA,0.114
10,CAAGAGCC,0.115
11,ATGTAATA,0.139
12,GCGGACCA,0.0166
13,TTGAGAAA,0.207
14,CTGTAAGC,-0.0646
15,CAAGATCG,-0.0445
16,CTGTGGAA,0.276
17,GGTGCATA,0.1
18,CACTGGGC,-0.0523
19,GCTAATCC,-0.0671
20,CTTCACCC,0.0369
21,AAATTCTT,0.0384
22,TACAAGGA,0.0703

row,Sequence,PBM E-score
1,GGCTCCTA,0.245
2,AATCCGGT,0.166
3,CAGGGGAC,-0.0253
4,CGATGGCG,-0.21
5,TATCTGCA,-0.00846
6,ACCTCCCG,-0.179
7,GCCGTTCC,-0.00804
8,TGCGCTAA,0.141
9,CAAACACG,-0.0267
10,GACTAGAC,-0.0113
11,CAGCCCGC,-0.0661
12,GTTACGAA,0.00332
13,ACGTGCAA,-0.109
14,GAAACCAC,0.131
15,GTCTCGAA,-0.0587
16,AGTCTCTC,-0.232
17,AAACAATA,0.0136
18,ACGCTGCC,0.339
19,ATTGGCAG,0.0782
20,CAGCAAAG,-0.202
21,TATCTTGA,-0.103
22,CCCAAGAA,0.236

row,Sequence,PBM E-score
1,GTTATAAC,0.107
2,ATAACTCG,-0.0437
3,AACAGAGT,-0.15
4,GTACGTAA,-0.0819
5,AATGCGAA,0.136
6,GATGGATA,0.0193
7,ACCTTACT,-0.0612
8,TAAGGCGA,0.118
9,GGTAAACC,-0.152
10,AATCCAAT,0.191
11,GCCATAAA,0.0512
12,ACTATAGA,0.0257
13,CCATACAG,-0.0185
14,ACCCCTGG,-0.126
15,AATTGAAC,-0.0431
16,GAGCCCCA,0.169
17,AGCGGCAA,0.045
18,ACCACCGG,0.167
19,CACCACTC,0.134
20,ACTCACTC,-0.117
21,CAGCAAGC,-0.311
22,GTCACGCA,-0.111

row,Sequence,PBM E-score
1,ACCATCTA,-0.14
2,GCCTATGA,-0.0151
3,AGTTCAAG,-0.0913
4,CATTTGCA,0.0561
5,AAGTTGAA,0.0298
6,CCATACTC,0.0592
7,ATGTCTCG,-0.104
8,AGAACCTA,0.0206
9,CGAGCTTC,0.371
10,AGCGCGCA,0.0716
11,AATCCCTC,-0.0454
12,GAAGCGCC,0.206
13,TAATATAA,0.135
14,ACTATGCA,0.112
15,TAGCTTAA,-0.228
16,GACGCAAA,0.0943
17,GCTGACTA,-0.0111
18,AGGCATTC,0.0927
19,ACATCTCG,0.0177
20,CCTGCTAG,-0.323

# From the supplement of paper PMC3334620
